Measurements: the supplement of paper PMC10369915
The list shows a part of the results. Cut-off read from the data, not from the text of the source: active = 3.2 or more and inactive = the rest. Most of these values are background signal.

Experiments:
Assay in all cases: enrichment score (SH2-bound / input frequency) (ratio); bacterial display of known human phosphotyrosine sites (pTyr-Var adds point mutants) read by sequencing; higher = stronger binding; tyrosines were phosphorylated by kinases first
Settings in all cases: peptide library: pTyr-Var
SHP2 C-SH2 domain E139D = biological target: SHP2 C-SH2 domain E139D
[1] = biological target: SHP2 C-SH2 domain wild-type
SHP2 N-SH2 domain L43F = biological target: SHP2 N-SH2 domain L43F
SHP2 N-SH2 domain T42A = biological target: SHP2 N-SH2 domain T42A
SHP2 N-SH2 domain T52S = biological target: SHP2 N-SH2 domain T52S
[2] = biological target: SHP2 N-SH2 domain wild-type
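Note: displayed peptides selected on beads carrying the immobilized SH2 domain, with library peptides lacking any tyrosine serving as negative controls.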

Binder: LLVVVYKYRCY [PSEN1_Y154_L153V]
- enrichment score (SHP2 C-SH2 domain E139D): inactive: 2.68
- enrichment score [1]: inactive: 2.8
- enrichment score (SHP2 N-SH2 domain L43F): inactive: 2.25
- enrichment score (SHP2 N-SH2 domain T42A): inactive: 2.15
- enrichment score (SHP2 N-SH2 domain T52S): inactive: 3.01
- enrichment score [2]: inactive: 1.49

Binder: RESVSYLFSHV [PRPS1_Y311_G306R]
- enrichment score (SHP2 C-SH2 domain E139D): inactive: 1.23
- enrichment score [1]: inactive: 1.55
- enrichment score (SHP2 N-SH2 domain L43F): inactive: 1.1
- enrichment score (SHP2 N-SH2 domain T42A): inactive: 2.49
- enrichment score (SHP2 N-SH2 domain T52S): inactive: 1.06
- enrichment score [2]: inactive: 1.25

Binder: SKNSKCNAEST [PSEN1_Y315_Y315C]
- enrichment score (SHP2 C-SH2 domain E139D): inactive: 0.71
- enrichment score [1]: inactive: 0.556
- enrichment score (SHP2 N-SH2 domain L43F): inactive: 0.561
- enrichment score (SHP2 N-SH2 domain T42A): inactive: 0.637
- enrichment score (SHP2 N-SH2 domain T52S): inactive: 0.614
- enrichment score [2]: inactive: 0.625

Binder: PKGWNYELPAT [PROM1_Y34_A31G]
- enrichment score (SHP2 C-SH2 domain E139D): inactive: 1.1
- enrichment score [1]: inactive: 0.912
- enrichment score (SHP2 N-SH2 domain L43F): inactive: 1.06
- enrichment score (SHP2 N-SH2 domain T42A): inactive: 0.613
- enrichment score (SHP2 N-SH2 domain T52S): inactive: 0.736
- enrichment score [2]: inactive: 0.987

Binder: GGFTCCCDGKK [PROS1_Y266_Y266C_YF]
- enrichment score (SHP2 C-SH2 domain E139D): inactive: 1.04
- enrichment score [1]: inactive: 1.43
- enrichment score (SHP2 N-SH2 domain L43F): inactive: 1.14
- enrichment score (SHP2 N-SH2 domain T42A): inactive: 0.948
- enrichment score (SHP2 N-SH2 domain T52S): inactive: 0.813
- enrichment score [2]: inactive: 1.31

Binder: PLDNLYAEPAV [PRPS1_Y146_V142L]
- enrichment score (SHP2 C-SH2 domain E139D): inactive: 0.878
- enrichment score [1]: inactive: 0.953
- enrichment score (SHP2 N-SH2 domain L43F): inactive: 0.957
- enrichment score (SHP2 N-SH2 domain T42A): inactive: 0.797
- enrichment score (SHP2 N-SH2 domain T52S): inactive: 0.941
- enrichment score [2]: inactive: 0.67

Binder: LIEQAYDNLHE [PRPF8_Y871_P874L]
- enrichment score (SHP2 C-SH2 domain E139D): inactive: 0.713
- enrichment score [1]: inactive: 0.889
- enrichment score (SHP2 N-SH2 domain L43F): inactive: 0.764
- enrichment score (SHP2 N-SH2 domain T42A): inactive: 0.603
- enrichment score (SHP2 N-SH2 domain T52S): inactive: 1.05
- enrichment score [2]: inactive: 0.591

Binder: GGFTCYSDGKK [PROS1_Y266_C267S_YF]
- enrichment score (SHP2 C-SH2 domain E139D): inactive: 0.849
- enrichment score [1]: inactive: 1.49
- enrichment score (SHP2 N-SH2 domain L43F): inactive: 0.948
- enrichment score (SHP2 N-SH2 domain T42A): inactive: 0.885
- enrichment score (SHP2 N-SH2 domain T52S): inactive: 0.951
- enrichment score [2]: inactive: 1.33

Binder: GGFTRYCDGKK [PROS1_Y266_C265R_YF]
- enrichment score (SHP2 C-SH2 domain E139D): inactive: 0.85
- enrichment score [1]: inactive: 1
- enrichment score (SHP2 N-SH2 domain L43F): inactive: 1.02
- enrichment score (SHP2 N-SH2 domain T42A): inactive: 0.968
- enrichment score (SHP2 N-SH2 domain T52S): inactive: 1.06
- enrichment score [2]: inactive: 1.02

Binder: SKNSKYNAEST [PSEN1_Y315]
- enrichment score (SHP2 C-SH2 domain E139D): inactive: 0.561
- enrichment score [1]: inactive: 0.591
- enrichment score (SHP2 N-SH2 domain L43F): inactive: 0.48
- enrichment score (SHP2 N-SH2 domain T42A): inactive: 0.487
- enrichment score (SHP2 N-SH2 domain T52S): inactive: 0.362
- enrichment score [2]: inactive: 0.608

Binder: GGYTCCCDGKK [PROS1_Y266_Y266C]
- enrichment score (SHP2 C-SH2 domain E139D): inactive: 0.571
- enrichment score [1]: inactive: 0.926
- enrichment score (SHP2 N-SH2 domain L43F): inactive: 0.599
- enrichment score (SHP2 N-SH2 domain T42A): inactive: 0.619
- enrichment score (SHP2 N-SH2 domain T52S): inactive: 0.635
- enrichment score [2]: inactive: 1.12

Binder: LLVVLNKFRCF [PSEN1_Y154_Y154N_YF]
- enrichment score (SHP2 C-SH2 domain E139D): inactive: 1.78
- enrichment score [1]: inactive: 1.24
- enrichment score (SHP2 N-SH2 domain L43F): inactive: 1.33
- enrichment score (SHP2 N-SH2 domain T42A): inactive: 1.4
- enrichment score (SHP2 N-SH2 domain T52S): inactive: 1.2
- enrichment score [2]: inactive: 1.4

Binder: PVFIKYLPEWT [PSEN1_Y240_L235P]
- enrichment score (SHP2 C-SH2 domain E139D): inactive: 2.01
- enrichment score [1]: inactive: 1.89
- enrichment score (SHP2 N-SH2 domain L43F): inactive: 2.5
- enrichment score (SHP2 N-SH2 domain T42A): inactive: 2.13
- enrichment score (SHP2 N-SH2 domain T52S): inactive: 2.15
- enrichment score [2]: inactive: 1.85

Binder: AVISVYDLVVV [PSEN1_Y256_A260V]
- enrichment score (SHP2 C-SH2 domain E139D): inactive: 2.11
- enrichment score [1]: inactive: 1.94
- enrichment score (SHP2 N-SH2 domain L43F): inactive: 1.97
- enrichment score (SHP2 N-SH2 domain T42A): inactive: 1.55
- enrichment score (SHP2 N-SH2 domain T52S): inactive: 1.96
- enrichment score [2]: inactive: 1.89

Binder: QLCVNYPGGYT [PROS1_Y259]
- enrichment score (SHP2 C-SH2 domain E139D): inactive: 0.996
- enrichment score [1]: inactive: 1.09
- enrichment score (SHP2 N-SH2 domain L43F): inactive: 1.04
- enrichment score (SHP2 N-SH2 domain T42A): inactive: 0.721
- enrichment score (SHP2 N-SH2 domain T52S): inactive: 0.705
- enrichment score [2]: inactive: 1.39

Binder: LVIIKYLPEWT [PSEN1_Y240_F237I]
- enrichment score (SHP2 C-SH2 domain E139D): active: 3.85
- enrichment score [1]: active: 3.4
- enrichment score (SHP2 N-SH2 domain L43F): inactive: 3.14
- enrichment score (SHP2 N-SH2 domain T42A): inactive: 2.46
- enrichment score (SHP2 N-SH2 domain T52S): inactive: 3.17
- enrichment score [2]: inactive: 3.01

Binder: SKNFTYIWWLN [PSG4_Y271_YF]
- enrichment score (SHP2 C-SH2 domain E139D): inactive: 0.971
- enrichment score [1]: inactive: 1.02
- enrichment score (SHP2 N-SH2 domain L43F): inactive: 0.782
- enrichment score (SHP2 N-SH2 domain T42A): inactive: 0.732
- enrichment score (SHP2 N-SH2 domain T52S): inactive: 0.774
- enrichment score [2]: inactive: 0.857

Binder: QLCVNYPGGFT [PROS1_Y259_YF]
- enrichment score (SHP2 C-SH2 domain E139D): inactive: 0.883
- enrichment score [1]: inactive: 1.42
- enrichment score (SHP2 N-SH2 domain L43F): inactive: 1.17
- enrichment score (SHP2 N-SH2 domain T42A): inactive: 0.689
- enrichment score (SHP2 N-SH2 domain T52S): inactive: 0.932
- enrichment score [2]: inactive: 1.36

Binder: WISNRYPDFSS [PRPH2_Y184_L185P]
- enrichment score (SHP2 C-SH2 domain E139D): inactive: 1.44
- enrichment score [1]: inactive: 0.94
- enrichment score (SHP2 N-SH2 domain L43F): inactive: 0.957
- enrichment score (SHP2 N-SH2 domain T42A): inactive: 1.14
- enrichment score (SHP2 N-SH2 domain T52S): inactive: 1.09
- enrichment score [2]: inactive: 1.08
